In the supplement of paper PMC3334620:
Over roughly 33,000 sequences, “E-score (-0.5 to 0.5)” has its median near -0.054; the highest 2% begin near 0.35. Some of the results follow.

These sequences were tested against T1, Stb5 (UniProt P38699) (assay: PBM E-score (8-mer binding enrichment) (E-score (-0.5 to 0.5)); higher = stronger / more preferred TF binding; most listed sequences are background and not binding sites). Settings: protein concentration: 200 nM; construct: GST-full length.
T1 sequence: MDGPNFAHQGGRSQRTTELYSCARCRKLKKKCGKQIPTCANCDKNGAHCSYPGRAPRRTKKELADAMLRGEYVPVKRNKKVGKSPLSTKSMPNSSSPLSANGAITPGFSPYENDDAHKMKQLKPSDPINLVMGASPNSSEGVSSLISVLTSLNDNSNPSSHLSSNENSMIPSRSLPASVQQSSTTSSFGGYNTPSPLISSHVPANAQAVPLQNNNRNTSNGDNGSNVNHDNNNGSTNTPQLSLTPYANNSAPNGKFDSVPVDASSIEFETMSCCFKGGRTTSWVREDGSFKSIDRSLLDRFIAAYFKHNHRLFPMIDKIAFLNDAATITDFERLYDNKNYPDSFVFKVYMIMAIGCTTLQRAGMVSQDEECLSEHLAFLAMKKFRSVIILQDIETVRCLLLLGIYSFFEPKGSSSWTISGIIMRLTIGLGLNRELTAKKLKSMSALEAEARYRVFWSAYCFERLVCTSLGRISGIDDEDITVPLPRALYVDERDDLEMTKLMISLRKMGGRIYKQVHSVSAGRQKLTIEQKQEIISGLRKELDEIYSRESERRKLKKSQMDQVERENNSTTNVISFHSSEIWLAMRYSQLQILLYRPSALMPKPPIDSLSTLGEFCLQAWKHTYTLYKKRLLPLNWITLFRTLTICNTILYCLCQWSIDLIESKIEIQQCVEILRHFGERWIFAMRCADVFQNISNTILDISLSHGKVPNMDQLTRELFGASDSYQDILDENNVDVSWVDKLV
Method: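 Universal 'all 10-mer' protein binding microarrays (Agilent AMADID 015681) probed with GST-tagged S. cerevisiae TFs (full-length or DBD) made by in vitro transcription/translation (PURExpress), about 100-200 nM. Bound TF was detected with fluorescent anti-GST. Each ungapped 8-mer (which stands for itself and its reverse complement) is scored by the PBM enrichment score (E-score), a modified Wilcoxon-Mann-Whitney statistic from -0.5 to +0.5, computed with the Universal PBM Analysis Suite. Scale: above 0.35 generally sequence-specific binding.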

Row | Sequence | PBM E-score
1 | ATACTTGG | -0.137
2 | GGGGAGTA | 0.0545
3 | AAAGGCCG | 0.446
4 | GTGTCAAA | 0.08
5 | ACGAGACA | -0.206
6 | ATTCACTC | 0.0479
7 | AAAACCAA | -0.0965
8 | ACTGTTCT | -0.189
9 | ATGAATTA | -0.111
10 | CCTACGTC | -0.049
11 | ATCAGTCG | 0.0387
12 | CATTAACC | -0.00636
13 | CATTCCCG | 0.203
14 | GAATACAA | 0.0475
15 | GCGAAAGA | -0.0991
16 | AGCGAAAT | -0.0849
17 | CGTTGCGC | 0.0674
18 | GACAAAAA | 0.0484
19 | ATCGGGGG | 0.289
20 | CGAAGGTC | 0.104
21 | ATTGGCTC | -0.229
22 | ACGCCCTC | -0.0589
23 | CATCCTCA | -0.139
24 | AATTCCAG | -0.0499
25 | AATTTAAG | -0.0487

Row | Sequence | PBM E-score
26 | CAGTGATA | -0.0765
27 | ACATGTCC | 0.116
28 | CAGTACAA | -0.0509
29 | AAAAGCTT | -0.118
30 | GTACGGGA | 0.0793
31 | AATCTCAC | -0.188
32 | ATTTCAAG | -0.152
33 | GGCAGTAC | 0.0214
34 | CCATTGGG | -0.0421
35 | GTATACAA | 0.0829
36 | GCGCATCC | 0.0779
37 | AAGAGAGA | -0.325
38 | GCCGGTAC | 0.314
39 | ATTAAGCC | 0.164
40 | CTCTGAAA | -0.187
41 | AGCGACCA | -0.135
42 | ACTAGGAA | -0.0827
43 | ATCTCCCG | 0.124
44 | CGTTAGTC | 0.0922
45 | CGGACGTA | 0.407
46 | AATTAGGT | -0.0707
47 | CCGCCGAC | 0.356
48 | ATCGAATC | -0.00403
49 | GCAAATGC | 0.0604
50 | ATAGCTAA | -0.18

Row | Sequence | PBM E-score
51 | ATGGCTAA | -0.0533
52 | AAACGCGG | 0.271
53 | GTTCACGA | -0.0648
54 | AAGATTCT | -0.344
55 | GGATGTAC | 0.0579
56 | CAGTTCTA | -0.128
57 | CTCTACAG | -0.158
58 | AATGATCA | -0.293
59 | GCATTCGC | -0.0124
60 | AGCCAGCA | -0.147
61 | TGAGTCAA | -0.0377
62 | CTACTTTA | -0.1
63 | CTCGTGTC | -0.157
64 | AACGGTAC | 0.289
65 | AATTATGC | 0.0642
66 | GCCTCAGC | -0.151
67 | GAGCAGTA | -0.0483
68 | CCGCCCGG | 0.344
69 | CATCTATA | 0.038
70 | GTTCTTAA | 0.0213
71 | CTTTCTGC | -0.15
72 | CTTAATCC | 0.0909
73 | CATCGGTA | 0.33
74 | GGGGTGAA | 0.183
75 | GCAGTCCC | -0.173

Row | Sequence | PBM E-score
76 | ATTGGTGG | 0.041
77 | ACGTACAT | -0.108
78 | GTCATAGA | -0.0642
79 | CCGTGAAG | 0.013
80 | AAACGGAT | 0.197
81 | GCACTTAA | 0.152
82 | GCCGAATA | 0.194
83 | ACCTGACT | -0.309
84 | CCGTCTAC | 0.147
85 | CTTTCAAA | -0.0117
86 | ATTGCTCG | -0.0914
87 | CCGAGGCA | 0.0512
88 | CACGCCTC | -0.342
89 | GGCTACGA | 0.0073
90 | ACGCAGTC | -0.138
91 | AGGACCCA | -0.133
92 | AATTGGAC | 0.0159
93 | CCATGCGC | -0.00872
94 | CCTAGTAA | 0.115
95 | AATGTACA | 0.003
96 | CATCATCC | -0.174
97 | CAGAATCA | -0.134
98 | GGTGCACC | -0.0672
99 | AACTATAG | -0.0316
100 | CTCGACCA | -0.211

Row | Sequence | PBM E-score
101 | GACAGTTA | -0.0979
102 | AGATCACG | -0.179
103 | AGAACTGC | -0.107
104 | TCCGCGAA | 0.252
105 | AGCACAGG | -0.192
106 | CGACTAAA | -0.102
107 | TCACTAAA | -0.267
108 | ATCACGAA | -0.109
109 | AAATAAAG | -0.0493
110 | ACCTCGAT | -0.167
111 | AAGACAGG | -0.206
112 | CTTTATGA | -0.246
113 | GAGAGTCC | 0.0382
114 | AAAAGCGG | 0.298
115 | CCGCGAAG | 0.213
116 | AATTGTAG | -0.259
117 | AGTGTCCA | -0.234
118 | CGACGCCA | 0.0897
119 | CTAGTTCC | 0.225
120 | CTCCAAAC | -0.105
121 | CACGTTTA | -0.22
122 | CTCACCTA | -0.0147
123 | TACTCCTA | -0.167
124 | GTGAACCA | -0.099
125 | GGTGTGCA | -0.211

Row | Sequence | PBM E-score
126 | AGGTCCCA | -0.357
127 | CCAGGTGC | -0.153
128 | AGTAGGTC | -0.0747
129 | AGTAGGAA | -0.182
130 | CGGGGGAA | 0.257
131 | ACCTAGAC | 0.0305
132 | CAGGTCCG | 0.237
133 | AGCTTAGG | -0.07
134 | CCGGTCCA | 0.19
135 | ATTGGTAG | -0.0955
136 | ATCCCGAC | 0.39
137 | AAAAGCAA | -0.148
138 | GGTAAGTA | -0.00068
139 | GCCGTAGA | 0.0993
140 | ACCGATAC | 0.28
141 | ACAAGACA | -0.159
142 | AGGGGCAG | -0.286
143 | AATAGCAA | -0.0528
144 | CGTAGTAG | -0.0278
145 | ATACGGAG | 0.201
146 | ATTTCGAG | -0.128
147 | GCTTCTTA | 0.0369
148 | GAATCGCA | 0.00579
149 | CGTAGCGC | 0.0794
150 | ATGCGTTA | -0.0824

Row | Sequence | PBM E-score
151 | GGTCTTTA | 0.282
152 | ATGCGAAC | 0.064
153 | AATCGAGA | -0.219
154 | ATCGTTAG | -0.0801
155 | CATTTACG | -0.131
156 | CCGCGCTC | 0.227
157 | AACCTGCT | -0.029
158 | AGAATTAG | -0.205
159 | GTTTGTCA | -0.102
160 | ATGCCTAC | -0.219
161 | TGAAGCAA | -0.0466
162 | CCTGACTA | -0.138
163 | ATAATCTC | -0.0165
164 | GCAACCGA | -0.144
165 | GGATGTGA | -0.109
166 | AATAGTGG | -0.138
167 | TCTAAGCA | -0.0121
168 | AAAAATCT | -0.15
169 | GGAATTCC | -0.0709
170 | GAACCCGC | 0.199
171 | AACGAGGA | -0.126
172 | AGAGTTAA | -0.131
